Laboratory results as given in PMC9513894.
Results are given in words; binding and its absence hold for the method and conditions named. Binding seen in cells or lysates may run through a third protein. Some binding calls cover weakened binding; strength is not graded here. Sequences can lack the tags named with a protein.

Protein sequences, listed by entry. Tags and fused reporters are not part of them.
UniProt Q14694: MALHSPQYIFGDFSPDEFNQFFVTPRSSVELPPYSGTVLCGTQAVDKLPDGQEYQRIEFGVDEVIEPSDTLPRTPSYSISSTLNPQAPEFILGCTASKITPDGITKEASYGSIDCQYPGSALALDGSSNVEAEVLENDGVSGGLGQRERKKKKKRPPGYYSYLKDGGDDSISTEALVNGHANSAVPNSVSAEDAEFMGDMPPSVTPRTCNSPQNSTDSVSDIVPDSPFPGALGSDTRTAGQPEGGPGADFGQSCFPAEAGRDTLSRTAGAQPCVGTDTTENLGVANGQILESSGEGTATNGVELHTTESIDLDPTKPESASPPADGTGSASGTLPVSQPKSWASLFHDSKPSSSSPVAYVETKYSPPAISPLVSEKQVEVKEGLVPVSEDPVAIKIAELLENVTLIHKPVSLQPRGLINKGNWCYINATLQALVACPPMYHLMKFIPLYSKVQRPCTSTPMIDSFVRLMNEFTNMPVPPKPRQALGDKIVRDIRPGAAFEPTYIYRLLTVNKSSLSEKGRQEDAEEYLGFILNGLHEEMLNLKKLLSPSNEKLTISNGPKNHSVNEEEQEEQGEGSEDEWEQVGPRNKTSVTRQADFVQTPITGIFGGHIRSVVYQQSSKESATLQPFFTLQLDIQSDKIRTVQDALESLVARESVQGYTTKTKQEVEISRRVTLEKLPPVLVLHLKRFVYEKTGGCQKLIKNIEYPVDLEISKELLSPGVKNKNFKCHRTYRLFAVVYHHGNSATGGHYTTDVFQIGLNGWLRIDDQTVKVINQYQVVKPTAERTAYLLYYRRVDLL
UniProt Q93009: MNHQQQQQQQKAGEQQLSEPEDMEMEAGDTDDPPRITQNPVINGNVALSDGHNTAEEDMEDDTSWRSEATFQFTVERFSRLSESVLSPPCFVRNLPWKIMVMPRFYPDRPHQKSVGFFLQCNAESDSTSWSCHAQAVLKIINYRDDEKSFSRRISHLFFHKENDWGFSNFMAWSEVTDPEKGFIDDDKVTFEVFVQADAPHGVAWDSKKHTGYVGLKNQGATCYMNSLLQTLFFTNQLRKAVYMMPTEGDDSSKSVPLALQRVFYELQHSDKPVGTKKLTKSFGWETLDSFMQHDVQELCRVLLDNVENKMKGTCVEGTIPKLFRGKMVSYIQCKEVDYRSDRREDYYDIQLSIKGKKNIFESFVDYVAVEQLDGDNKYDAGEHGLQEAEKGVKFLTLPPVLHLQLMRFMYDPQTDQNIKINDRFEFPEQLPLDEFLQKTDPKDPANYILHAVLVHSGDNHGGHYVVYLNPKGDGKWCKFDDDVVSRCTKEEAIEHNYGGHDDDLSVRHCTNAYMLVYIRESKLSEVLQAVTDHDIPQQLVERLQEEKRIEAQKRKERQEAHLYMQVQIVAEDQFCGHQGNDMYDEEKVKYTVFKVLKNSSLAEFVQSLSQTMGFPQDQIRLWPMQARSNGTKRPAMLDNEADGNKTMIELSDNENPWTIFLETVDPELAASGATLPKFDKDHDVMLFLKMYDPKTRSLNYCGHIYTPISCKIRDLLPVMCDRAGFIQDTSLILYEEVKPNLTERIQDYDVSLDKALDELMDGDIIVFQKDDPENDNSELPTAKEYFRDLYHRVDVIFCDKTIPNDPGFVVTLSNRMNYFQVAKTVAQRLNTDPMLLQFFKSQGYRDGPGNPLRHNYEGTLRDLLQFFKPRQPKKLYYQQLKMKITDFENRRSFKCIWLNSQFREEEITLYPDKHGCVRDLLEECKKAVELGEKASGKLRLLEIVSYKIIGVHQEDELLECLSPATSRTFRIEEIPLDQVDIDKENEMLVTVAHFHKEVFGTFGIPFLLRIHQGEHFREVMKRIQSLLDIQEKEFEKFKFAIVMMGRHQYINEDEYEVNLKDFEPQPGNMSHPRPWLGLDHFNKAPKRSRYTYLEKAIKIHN

Tests used:
Test in all cases: co-IP; Flag-tagged USPs and HA-HDAC7 transfected into HEK-293T cells; anti-Flag beads (4 °C, 4 h; washed 4 times with NETN buffer); HA-HDAC7 detected by immunoblot
[1] = molecular target: Flag-USP10 (ubiquitin-specific peptidase 10) (UniProt Q14694)
Flag-USP22 = molecular target: T1, Flag-USP22 (UniProt Q9UPT9)
T1 sequence: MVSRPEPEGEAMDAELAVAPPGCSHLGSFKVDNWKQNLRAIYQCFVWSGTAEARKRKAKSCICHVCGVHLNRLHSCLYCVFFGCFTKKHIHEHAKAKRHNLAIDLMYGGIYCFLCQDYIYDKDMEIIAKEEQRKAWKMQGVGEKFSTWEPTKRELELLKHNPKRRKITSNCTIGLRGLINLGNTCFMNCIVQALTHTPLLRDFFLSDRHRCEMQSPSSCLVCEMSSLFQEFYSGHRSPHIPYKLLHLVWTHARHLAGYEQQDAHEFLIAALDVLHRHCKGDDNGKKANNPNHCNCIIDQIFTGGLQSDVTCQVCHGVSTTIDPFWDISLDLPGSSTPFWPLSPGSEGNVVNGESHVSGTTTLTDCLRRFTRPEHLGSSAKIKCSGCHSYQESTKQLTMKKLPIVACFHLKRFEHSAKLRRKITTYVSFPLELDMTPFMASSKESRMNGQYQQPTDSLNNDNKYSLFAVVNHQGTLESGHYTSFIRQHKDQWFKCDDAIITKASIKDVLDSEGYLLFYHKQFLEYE

Flag-USP7 = Flag-USP7 (UniProt Q93009)

- binding [1]: binds
- binding (Flag-USP22): no binding
- binding (Flag-USP7): no binding
B1: HA-HDAC7 (histone deacetylase 7) (enzyme, UniProt Q8WUI4 1-952)
chain: MDLRVGQRPPVEPPPEPTLLALQRPQRLHHHLFLAGLQQQRSVEPMRLSMDTPMPELQVGPQEQELRQLLHKDKSKRSAVASSVVKQKLAEVILKKQQAALERTVHPNSPGIPYRTLEPLETEGATRSMLSSFLPPVPSLPSDPPEHFPLRKTVSEPNLKLRYKPKKSLERRKNPLLRKESAPPSLRRRPAETLGDSSPSSSSTPASGCSSPNDSEHGPNPILGSEALLGQRLRLQETSVAPFALPTVSLLPAITLGLPAPARADSDRRTHPTLGPRGPILGSPHTPLFLPHGLEPEAGGTLPSRLQPILLLDPSGSHAPLLTVPGLGPLPFHFAQSLMTTERLSGSGLHWPLSRTRSEPLPPSATAPPPPGPMQPRLEQLKTHVQVIKRSAKPSEKPRLRQIPSAEDLETDGGGPGQVVDDGLEHRELGHGQPEARGPAPLQQHPQVLLWEQQRLAGRLPRGSTGDTVLLPLAQGGHRPLSRAQSSPAAPASLSAPEPASQARVLSSSETPARTLPFTTGLIYDSVMLKHQCSCGDNSRHPEHAGRIQSIWSRLQERGLRSQCECLRGRKASLEELQSVHSERHVLLYGTNPLSRLKLDNGKLAGLLAQRMFVMLPCGGVGVDTDTIWNELHSSNAARWAAGSVTDLAFKVASRELKNGFAVVRPPGHHADHSTAMGFCFFNSVAIACRQLQQQSKASKILIVDWDVHHGNGTQQTFYQDPSVLYISLHRHDDGNFFPGSGAVDEVGAGSGEGFNVNVAWAGGLDPPMGDPEYLAAFRIVVMPIAREFSPDLVLVSAGFDAAEGHPAPLGGYHVSAKCFGYMTQQLMNLAGGAVVLALEGGHDLTAICDASEACVAALLGNRVDPLSEEGWKQKPNLNAIRSLEAVIRVHSKYWGCMQRLASCPDSWVPRVPGADKEEVEAVTALASLSVGILAEDRPSEQLVEEEEPMNL
